For 34 compounds, TGI and GI50 results are on record in PubChem BioAssay (NCI).

Values joined by “and” are separate entries in the source; they are usually repeats but may differ in a detail not shown here. Equal values may be shown once.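 Following 48 hours of exposure in 96-well plates, responses at five concentrations were used to interpolate endpoints linearly. Abbreviation: GI50, concentration required for 50% inhibition of growth. TGI marks complete inhibition of growth.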

The test concerns NCI-H322M lung. Description: DTP human tumour cell line panel, 48 h.
A word on the TGI: it is the concentration giving total growth inhibition. Higher therefore signals lower sensitivity of the cells. Compound `C[C@]12CCC(=O)C=C1CC[C@@H]1[C@@H]2[C@@H](O)C[C@@]2(C)[C@H]1CC[C@]2(O)C(=O)COC(=O)CCC1CCCC1` had a concentration for total growth inhibition (TGI) above 100 µM.

Turning to `COc1cc2oc(-c3ccc4c(c3)OCO4)c(OC)c(=O)c2c(O)c1OC`, the concentration for total growth inhibition (TGI) was above 50 µM.

In turn, `CCN(CCCl)c1cccc(NC(=O)c2ccc(C(=O)Nc3cccc(CN(C)C)c3)cc2)c1` came in with a TGI of 4.1 µM.

With `Cc1c(C(=O)CC(=O)C(=O)Nc2cc(Cl)ccc2Cl)[n+](=O)c2ccccc2n1[O-]`, the TGI was above 100 µM.

`C/C=C(/C)c1cnc(CC(C)C)c(=O)[nH]1` came in with a TGI above 100 µM.

`CCOC(=O)Cc1csc(N=Nc2c(O)[nH]c3ccccc23)n1` gave a TGI above 100 µM.

Consider `COc1cc2c(cc1O)CCN(C)[C@H]2Cc1ccc(Oc2c(O)c(OC)cc3c2C[C@H]2c4c(c(OC)c(OC)c(OC)c4-3)CCN2C)cc1`, for which the total growth inhibition concentration (TGI) turned out to be 9.98 µM.

In general, GI50 refers to the concentration that inhibits growth by half. Turning to `COc1ccc(NC(=O)n2nc(/C=C\c3ccc(O)c(OC)c3)cc2/C=C\c2ccc(O)c(OC)c2)cc1`, the GI50 is 3.87 µM and the TGI turned out to be 72.5 µM.

`COC(=O)C(CC(=O)c1c[nH]c2ccccc12)c1c[nH]c2ccccc12` (configuration not stated) returned a TGI of 49.2 µM.

As to `CC1=NN2C(=N)/C(=C/c3ccccc3)C(=O)N=C2S1`, the total growth inhibition concentration (TGI) is above 100 µM.

`Oc1c(Cl)cc(Cl)cc1Sc1cc(Cl)cc(Cl)c1O`: the GI50 is 3.36 µM and 2.73 µM; the TGI is 17 µM and 10.3 µM.

Turning to `CC1(O)CCC2(C)C(=O)C1(C)CCC21OCCO1` (configuration not stated), the total growth inhibition concentration (TGI) was above 100 µM.

Regarding `O=P(O)(O)C=C=C1CCCCC1`, the concentration for total growth inhibition (TGI) is above 100 µM.

The compound `COC(=O)c1ccc(C(=O)OC)c2nc3cc(C)ccc3nc12` had a TGI above 100 µM.

`N#C/C(=C1/c2cc([N+](=O)[O-])ccc2-c2c1cc([N+](=O)[O-])cc2[N+](=O)[O-])N1CCCCC1` had a TGI above 100 µM.

`COC(=O)/C=C1\C(=O)C=C2[C@@H]3C[C@H]4C[C@H](CC[C@@]4(C)N21)C3(C)NC(C)=O` (some centres not stated) yielded a TGI of 58 µM.

The compound `O=C(NCCCCCCO)c1cccc2cc3ccccc3nc12` showed a TGI of 37.1 µM.

The compound `C=CC(OC(C)=O)c1ccc(OC(C)=O)cc1` (configuration not stated) had a concentration for total growth inhibition (TGI) of 31.7 µM. This TGI and that of the compound before are within 1.5-fold of each other.

`O=[N+]([O-])c1cc(F)ccc1Sc1ccccc1` displayed a TGI above 10 µM.

Turning to `COC(=O)[C@H]1[C@H]2C[C@@H]3c4[nH]c5cc(OC)ccc5c4CCN3C[C@H]2C[C@@H](OC(=O)/C=C/c2cc(OC)c(OC)c(OC)c2)[C@@H]1OC`, the GI50 was 13.4 µM and the total growth inhibition concentration (TGI) stood at 47.4 µM.

With `CNCCNc1nc2ccccc2c2c(=O)c3cc(F)ccc3sc12`, the GI50 is 1.69 µM and the TGI came out at 3.39 µM.

Turning to `COc1ccc(NC(=O)CC(=O)N2N=C(N(c3ccccc3)c3ccccc3)CC2c2ccccc2)cc1` (configuration not stated), the concentration for total growth inhibition (TGI) is above 100 µM.

As for `COc1cc(S(=O)(=O)Nc2ccc(-c3csc(/N=C\c4ccccc4)n3)cc2)ccc1Cl`, the total growth inhibition concentration (TGI) was above 100 µM.

Take `CNCCNc1nc2ccccc2c2c(=O)c3cc(OC)ccc3sc12`: the GI50 was 1.55 µM and the TGI was found to be 2.91 µM.

Regarding `O=C1c2ccccc2C(=O)c2nn(N=P(CP(=Nn3nc4c(n3)C(=O)c3ccccc3C4=O)(c3ccccc3)c3ccccc3)(c3ccccc3)c3ccccc3)nc21`, the TGI was above 100 µM.

Turning to `COc1ccc(C2SCC(=O)N2NC(=O)C(C)Oc2ccc(Cl)cc2Cl)cc1` (configuration not stated), the TGI was above 100 µM.

Consider `C/C(=C(/c1ccc(O)cc1)c1ccc(Cl)cc1)c1ccccc1`, for which the GI50 was 0.671 µM and the TGI is 2.06 µM.

Consider `COC(=O)c1cc(-c2ccc(OC)cc2)[nH]c1N/N=C/c1c(Cl)cccc1Cl`, for which the GI50 was 1.23 µM and the TGI was 30 µM.

`COC(=O)[C@@]1(C)CCC[C@]2(C(=O)O)C3Cc4occc4[C@H](C)[C@@H]3CCC21` (some centres not stated) registered a TGI above 100 µM.

In turn, `CCN(CC)/[N+]([O-])=N/O` came in with a total growth inhibition concentration (TGI) above 100 µM.

Compound `Clc1ccc2ns[s+]c2c1` gave a concentration for total growth inhibition (TGI) above 100 µM.

As to `NC(=O)c1csc(C2CCC(CO)O2)n1` (configuration not stated), the total growth inhibition concentration (TGI) was above 100 µM.

For the compound `COc1cc2c(c(OC)c1OC)-c1ccc(O)c(=O)cc1[C@@H](NC(C)=O)CC2`, the GI50 was 4.06 µM and the TGI is above 100 µM.

The compound `O=c1c2cc(Br)ccc2ncn1COCc1ccccc1` came in with a TGI above 100 µM.
